About 40 (0.04%) of roughly 110,000 compounds were called active. The shares of active, inactive and inconclusive entries below differ from those in the screen. Calls come from the whole dose curve; as a rule, active = well fitted curve in the direction sought with a large enough effect in the signal ratio (not every such curve was filed as active); inconclusive = small, poorly fitted or top-dose-only effect, or a change in a side signal; inactive = flat fitted curve, though single readings scatter; the % refers to the signal ratio. Potencies of inconclusive entries are doubtful fits and often do not repeat.
Assay: IkB Signaling;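 for IkBa stabilization activation: 0% = basal untreated cells and 100% = reference inhibitor full response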
Details: ABC-DLBCL IkBa-CBG/CBR dual luciferase ratio (green luciferase fused to IkBa over red control in OCI-Ly3 lymphoma cells), 4 h; IkBa stabilization activation: at 57.1 µM (top of the series), scaled: untreated 0%, proteasome inhibitor 100% unless noted
Summary of the method: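 Luminescence ratio of IκBα-fused green versus native red beetle luciferase in OCI-Ly3 cells, 4 h post-doxycycline with compound; red signal alone, scaled from basal (0%) to zero light (-100%), flagged nonspecific or cytotoxic effects.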
Potency is the fitted concentration of half-maximal effect.

SMILES	IkBa stabilization activation	Potency
COc1cc(-c2cc3n(C)c(C)c(CCC(=O)NC4CCCCC4)c(=O)n3n2)cc(OC)c1OC	inconclusive: 5.13% [signal inhibitor]	
COc1ccc(Oc2nc3c(c(=O)n(C)c(=O)n3C)n2Cc2ccc(Cl)cc2Cl)cc1	inconclusive: -0.475% [signal inhibitor]	
CCOC12NC(=O)CC(=O)N1C(c1ccccc1)=CS2 (stereo not drawn)	inconclusive: 3.8% [signal inhibitor]	
OCCN1CCN(c2ncnc3c2sc2nc(N4CCOCC4)c4c(c23)CCC4)CC1	inconclusive: 4.29% [signal inhibitor]	
CCCC(=O)n1nc(-c2ccco2)nc1SCc1ccccc1	inactive	
CCOC(=O)c1cnc2ccc(OC)cc2c1Nc1cccc(C(C)=O)c1	inconclusive: 1.25% [signal inhibitor]	
CC1(C)C(=O)Nc2ccccc2N1C(=O)COc1ccc(S(=O)(=O)N2CCOCC2)cc1Cl	inconclusive: 1.43% [signal inhibitor]	
O=C(CN1C(=O)C2(SCC(=O)N2c2ccc(F)c(F)c2)c2ccccc21)Nc1cccc(Cl)c1 (stereo not drawn)	inconclusive: 0.718% [signal inhibitor]	
Cc1ccccc1OCC(=O)Nc1ccc2nc(SCC(=O)N3CCOCC3)sc2c1	inconclusive: 1.64% [signal inhibitor]	
COc1ccc(NC(=O)N2CC3(CCN(C(=O)c4cccc(F)c4)CC3)C2)cc1	inactive: 1.27% [at 11.4 µM, scaled: untreated 0%, proteasome inhibitor 100%]	
Cc1ccc2[nH]c(=O)c(CN(CCc3ccccc3)C(c3nnnn3Cc3ccco3)C(C)C)cc2c1 (stereo not drawn)		inconclusive: 15.8 µM [signal inhibitor, partial curve]
CCCCNC(=O)Nc1c(C(=O)OCC)[nH]c2ccccc12	inactive	
Cc1ccc(C)c(S(=O)(=O)n2nc(C)c(S(=O)(=O)N3CCCCCC3)c2C)c1	inactive	
CCOc1cc(CNc2ccc(O)cc2)cc(Cl)c1OCc1ccccc1	inconclusive: 0.52% [signal inhibitor]	
Cn1nc(-c2ccccc2F)c2cc(C(=O)N3CCN(c4ccccc4F)CC3)sc21	inconclusive: 2.7% [signal inhibitor]	
COC(=O)c1ccc2c(=O)n(CCCCCC(=O)N3CCN(c4cccc(C)c4C)CC3)c(=O)[nH]c2c1	inconclusive: -3.62% [signal inhibitor]	
COCCCNc1nc2c(-c3cccc(Br)c3)nnn2c2ccccc12		inconclusive: 15.8 µM [signal inhibitor, partial curve]
O=C(O)CCC(=O)Nc1ccc2ccccc2c1		inconclusive: 1 µM [signal inhibitor, full curve]

Reference: PubChem BioAssay AID445 (National Center for Advancing Translational Sciences (NCATS), 2006)
